Experimental data taken from US20070111970A1, “Inositol compounds and uses of same in the treatment of diseases characterized by abnormal protein folding or aggregation or amyloid formation, desposition, accumulation or persistence” (priority 2005, published 2007).
Counter-ions that a name gives are not always drawn. The name of at least one read-out is uncertain.

What follows are molecules tested against T1, immobilized Aβ fibrils (Homo sapiens, UniProt P05067) (assay: FAC-MS % shift of free Aβ monomer on immobilized Aβ fibrils in presence of compounds). Settings: Table 1; FAC-MS % shift of Aβ monomer indicator (1 μM); compounds at 1 and 10 μM.
T1 construct: Amyloid beta (Aβ) fibrils were prepared
T1 sequence (P05067 672-711 limits assumed): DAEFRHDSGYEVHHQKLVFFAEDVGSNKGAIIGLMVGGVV
Assay type: binding

Row | Compound | ABeta SHIFT [%]
1 | O=C1[C@@H](O)[C@H](O)[C@@H](O)[C@H](O)[C@H]1O [2,4,5/3,5-Pentahydroxy cyclohexanone] | 11
2 | O=P(O)(O)OC1C(O)[C@@H](OP(=O)(O)O)C(O)C(O)[C@@H]1O (stereo partly drawn) [D-myo-Inositol 2,4-biphosphate ammonium salt, reference compound] | 12
3 | CCO[C@H]1[C@H](O)[C@@H](O)[C@H](O)[C@@H](O)[C@@H]1O [Ethyl-scyllo-inositol] | 14
4 | CO[C@H]1[C@H](O)[C@@H](O)[C@H](O)[C@@H](O)[C@@H]1O [Methyl-scyllo-inositol] | 48

Same assay, conditions: Table 2; FAC-MS % shift of Aβ monomer indicator (1 μM); compounds at 1 and 10 μM

Row | Compound | ABeta SHIFT [%]
5 | CO[C@H]1[C@H](O)[C@@H](O)[C@@H](O)[C@H](O)[C@@H]1O [drawing 167] | 3
6 | O=P(O)(O)OC1C(O)[C@@H](OP(=O)(O)O)C(O)C(O)[C@@H]1O (stereo partly shown) [drawing 173] | 12
7 | CO[C@H]1[C@H](O)[C@@H](O)[C@@H](O)[C@H](O)[C@@H]1O [drawing 179] | 2
